Test results as given in the supplement of paper PMC4967469.

Experiments:
Test in all cases: Viability of human cancer cell lines after 72 h of drug (GDSC screen)
[1] = compound: C=C(c1ccc(C(=O)O)cc1)c1cc2c(cc1C)C(C)(C)CCC2(C)C [Bexarotene]; conditions: top dose 8 µM
Description: (§1)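 Human cancer cell lines in 384-well plates, medium with 10% serum, drug for 72 h over a 256-fold dose range (nine 2-fold or five 4-fold steps up to the top dose). Adherent lines were fixed and stained with the nucleic acid dye Syto60, suspension lines read with resazurin; signal relative to control wells, capped at 0 and 100%. One two-parameter sigmoid per drug and line, fitted in a mixed model over all curves with the slope shared within a line.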

[2] = compound: COc1cc(C(=O)NC2CCN(C)CC2)ccc1Nc1ncc2c(n1)N(C1CCCC1)C(C)CC(=O)N2C [NPK76-II-72-1]; conditions: top dose 10.24 µM; top dose inferred
Description: as §1

[3] = compound: COc1cc([C@@H]2c3cc4c(cc3[C@@H](O[C@@H]3O[C@@H]5CO[C@@H](C)O[C@H]5[C@H](O)[C@H]3O)[C@H]3COC(=O)[C@H]23)OCO4)cc(OC)c1O [Etoposide]; conditions: top dose 16 µM
Description: as §1

[4] = compound: COc1ccc(C(=O)CC2(O)C(=O)Nc3c(Cl)ccc(Cl)c32)cc1 [YK 4-279]; conditions: top dose 10 µM
Description: as §1

[5] = compound: Cc1ccc2nc(NCCN)c3ncc(C)n3c2c1 [BMS-345541]; conditions: top dose 16 µM
Description: as §1

[6] = compound: NC(=O)Nc1cc(-c2cccc(F)c2)sc1C(=O)N[C@H]1CCCNC1 [AZD7762]; conditions: top dose 2 µM
Description: as §1

[7] = compound: O=C(O)c1ccc(-c2c[nH]c3ncc(-c4ccccc4)cc23)cc1C1CCCC1 [GSK-650394]; conditions: top dose 16 µM; top dose inferred
Description: as §1

[8] = compound: Oc1nc(-c2ccc(C(F)(F)F)cc2)nc2c1CSCC2 [XAV 939]; conditions: top dose 5 µM; top dose inferred
Description: as §1

Cell Line	AUC [1]	pIC50 [1]	AUC [2]	pIC50 [2]	AUC [3]	pIC50 [3]	AUC [4]	pIC50 [4]	AUC [5]	pIC50 [5]	AUC [6]	pIC50 [6]	AUC [7]	pIC50 [7]	AUC [8]	pIC50 [8]
NMC-G1 (glioma, adherent)	0.909	< 5.10	0.936	< 4.99	0.657	5.52	0.626	5.82	0.888	< 4.80	0.798	5.92	0.948	< 4.80	0.791	5.55
NOS-1 (osteosarcoma, adherent)	0.787	5.36	0.868	< 4.99	0.647	5.55	0.92	< 5.00	0.6	5.70	0.73	6.18	0.811	4.96	0.959	< 5.30
NTERA-2 cl.D1 (testis, adherent)	0.882	< 5.10	0.959	< 4.99	0.033	> 7.20	0.657	5.77	0.923	< 4.80	0.853	5.81	0.596	5.74	0.934	< 5.30
NU-DUL-1 (B-cell lymphoma, suspension)	0.913	5.12	0.462	6.29	0.421	6.20	0.99	< 5.00	0.846	5.08	0.222	7.62	0.931	< 4.80	0.987	< 5.30
NUGC-4 (stomach, adherent)	0.974	< 5.10	0.824	5.22	0.776	5.20	0.707	5.62	0.96	< 4.80	0.571	6.71	0.872	4.82	0.974	< 5.30
NY (osteosarcoma, adherent)	0.886	< 5.10	0.989	< 4.99	0.725	5.37	0.582	5.98	0.965	< 4.80	0.588	6.66	0.959	< 4.80	0.987	< 5.30
OAW-42 (ovary, adherent)	0.9	< 5.10	0.961	< 4.99	0.769	5.18	0.737	5.50	0.886	< 4.80	0.805	5.95	0.887	< 4.80	0.852	5.36
OCI-AML3 (acute myeloid leukaemia, suspension)	0.981	< 5.10	0.623	5.88	0.772	5.27	0.739	5.58	0.797	5.20	0.817	6.04	0.982	< 4.80	0.99	< 5.30
OCI-AML5 (acute myeloid leukaemia, suspension)	0.52	6.25	0.714	5.62	0.499	6.00	0.758	5.49	0.643	5.62	0.504	6.89	0.635	5.64	0.986	< 5.30
OCI-M1 (acute myeloid leukaemia, suspension)	0.994	< 5.10	0.789	5.47	0.66	5.61	0.79	5.47	0.852	5.09	0.624	6.60	0.929	4.80	0.991	< 5.30
OCUB-M (breast, adherent)	0.602	6.04	0.804	5.36	0.154	6.97	0.673	5.75	0.878	4.90	0.94	< 5.70	0.562	5.84	0.955	< 5.30
OE19 (oesophagus, adherent)	0.92	< 5.10	0.981	< 4.99	0.859	< 4.80	0.867	< 5.00	0.941	< 4.80	0.829	5.83	0.846	4.85	0.962	< 5.30
OE21 (oesophagus, adherent)	0.889	< 5.10	0.932	< 4.99	0.871	< 4.80	0.641	5.75	0.889	< 4.80	0.446	7.07	0.859	< 4.80	0.828	5.32
OE33 (oesophagus, adherent)	0.971	< 5.10	0.973	< 4.99	0.721	5.32	0.915	< 5.00	0.932	< 4.80	0.673	6.38	0.693	5.41	0.883	< 5.30
OMC-1 (cervix, adherent)	0.965	< 5.10	0.966	< 4.99	0.88	< 4.80	0.916	< 5.00	0.915	< 4.80	0.741	6.20	0.964	< 4.80	0.958	< 5.30
ONS-76 (medulloblastoma, adherent)	0.913	< 5.10	0.914	< 4.99	0.435	6.18	0.708	5.59	0.872	< 4.80	0.403	7.18	0.759	5.22	0.966	< 5.30
OPM-2 (myeloma, suspension)	0.99	< 5.10	0.601	5.94	0.865	5.00	0.959	< 5.00	0.637	5.65	0.775	6.19	0.975	< 4.80	0.992	< 5.30

Cell Line	AUC [1]	pIC50 [1]	AUC [2]	pIC50 [2]	AUC [3]	pIC50 [3]	AUC [4]	pIC50 [4]	AUC [5]	pIC50 [5]	AUC [6]	pIC50 [6]	AUC [7]	pIC50 [7]	AUC [8]	pIC50 [8]
OS-RC-2 (kidney, adherent)	0.946	< 5.10	0.974	< 4.99	0.786	4.98	0.881	< 5.00	0.857	< 4.80	0.695	6.24	0.879	< 4.80	0.94	< 5.30
OSC-20 (head and neck, adherent)	0.927	< 5.10	0.94	< 4.99	0.47	6.09	0.758	5.39	0.915	< 4.80	0.77	6.05	0.73	5.28	0.955	< 5.30
OVCAR-4 (ovary, adherent)	0.913	< 5.10	0.937	< 4.99	0.758	5.08	0.724	5.42	0.867	< 4.80	0.605	6.55	0.859	< 4.80	0.823	< 5.30
OVCAR-5 (ovary, adherent)	0.977	< 5.10	0.841	5.03	0.568	5.80	0.77	5.34	0.742	5.24	0.561	6.72	0.977	< 4.80	0.962	< 5.30
OVISE (ovary, adherent)	0.961	< 5.10	0.915	< 4.99	0.842	< 4.80	0.882	< 5.00	0.864	< 4.80	0.529	6.81	0.971	< 4.80	0.905	< 5.30
OVMIU (ovary, adherent)	0.952	< 5.10	0.914	< 4.99	0.817	4.92	0.709	5.55	0.853	< 4.80	0.823	5.80	0.947	< 4.80	0.811	5.45
OVTOKO (ovary, adherent)	0.895	< 5.10	0.95	< 4.99	0.747	5.20	0.731	5.46	0.893	< 4.80	0.502	6.90	0.903	< 4.80	0.946	< 5.30
P12-ICHIKAWA (T-cell lymphoblastic leukaemia, suspension)	0.987	< 5.10	0.63	5.87	0.339	6.40	0.863	5.25	0.6	5.75	0.686	6.44	0.869	5.03	0.987	< 5.30
P30-OHK (lymphoblastic leukaemia, suspension)	0.99	< 5.10	0.342	6.60	0.488	6.03	0.687	5.73	0.85	5.04	0.527	6.84	0.61	5.72	0.99	< 5.30
P31-FUJ (acute myeloid leukaemia, suspension)	0.993	< 5.10	0.986	< 4.99	0.995	< 4.80	0.711	5.68	0.937	< 4.80	0.561	6.75	0.995	< 4.80	0.993	< 5.30
P32-ISH (Burkitt lymphoma, suspension)	0.957	< 5.10	0.679	5.75	0.645	5.65	0.443	6.34	0.897	4.95	0.473	6.97	0.582	5.80	0.995	< 5.30
PA-TU-8902 (pancreas, adherent)	0.945	< 5.10	0.911	< 4.99	0.706	5.37	0.625	5.83	0.912	< 4.80	0.876	< 5.70	0.886	< 4.80	0.976	< 5.30
PA-TU-8988T (pancreas, adherent)	0.904	< 5.10	0.949	< 4.99	0.561	5.83	0.709	5.61	0.916	< 4.80	0.93	< 5.70	0.576	5.79	0.971	< 5.30
PANC-02-03 (pancreas, adherent)	0.982	< 5.10	0.797	5.22	0.889	< 4.80	0.746	5.43	0.902	< 4.80	0.623	6.53	0.975	< 4.80	0.958	< 5.30
PANC-03-27 (pancreas, adherent)	0.975	< 5.10	0.969	< 4.99	0.586	5.77	0.617	5.89	0.886	4.80	0.553	6.76	0.934	< 4.80	0.95	< 5.30
PC-3 [JPC-3] (lung adenocarcinoma, adherent)	0.914	< 5.10	0.913	< 4.99	0.854	< 4.80	0.824	5.06	0.824	4.86	0.827	5.75	0.965	< 4.80	0.977	< 5.30

pIC50: −log10 of the molar value. IC50 is the fitted dose that halves viability relative to control wells, and lower means more sensitive; a limit (>, <) means that the fit lies beyond the doses tested. For AUC the same curve is integrated over the 256-fold range of doses and scaled to a fraction; it is 1 without any effect and falls as sensitivity rises. For part of these data: Any top dose called inferred is not printed in the source and was worked back from the curve model.
